# The campaign covered roughly 350,000 compounds. About 9,900 (2.8%) were called active. Inconclusive results, whose numbers are uncertain, are shown with a selection of clear calls. The call rests on the fitted dose curve; in most records, active means well fitted activation curve with a large enough effect; inconclusive means small, poorly fitted or top-dose-only effect; inactive means no such curve, though single readings can be large or run the other way. Potencies of inconclusive entries are left out as doubtful fits.
# Experiment: A quantitative high throughput screen for small molecules that induce DNA re-replication in MCF 10a normal breast cells. Further: nearly all actives have a fitted effect of over 50% in size.
# Details: MCF 10A DNA re-replication, Hoechst nuclear intensity, 48 h; series mostly up to 46.1 µM
# Potency means the concentration at half of the fitted maximal effect; tags describe the fitted curve by direction and shape.
row,Compound,Potency
1,COc1cccc(/C=C2/Sc3ccc(C(=O)NCCCN4CCCC4)cc3NC2=O)c1,"inconclusive [activator, single point]"
2,Cc1[nH]nc2c1-c1nc3ccccc3nc1C(C)(C)C2,"inconclusive [activator, partial curve, poor fit]"
3,COc1ccc(C)cc1NC(=O)c1ccc(S(=O)(=O)N2CCOCC2)cc1,inactive
4,Cc1ccc(C(=O)NCC(=O)NCC(c2cccs2)N(C)C)cc1C (stereo not given),inactive
5,Cc1ccccc1OCC(=O)Nc1ccccc1N1CCC(C)CC1,"inconclusive [activator, single point]"
6,CC(C)=NOC(=O)c1c(C)noc1-c1snnc1C,"inconclusive [activator, partial curve, poor fit]"
7,Cc1cc(N2CCCCC2)nc2c(C)cccc12,"inconclusive [activator, partial curve, poor fit]"
8,COc1ccc(C)c2sc(N(CCCN(C)C)C(=O)c3ccc4c(c3)OCCO4)nc12,inactive
9,O=C(CC(c1ccccc1)c1ccccc1)N1CCN(c2ccccn2)CC1,"inconclusive [activator, partial curve, poor fit]"
10,CCOC(=O)C1=C(c2ccccc2)NC(N)=NC1c1ccc(OCc2ccc(C(=O)OC)cc2)cc1 (stereo not given),active: 18.4 µM
11,COc1ccc(-n2cc(CNC3CCN(C)CC3)c(-c3cccc(F)c3)n2)cc1,active: 20.6 µM
12,COc1ccc2c(c1)CC(N1CCN(C)CC1)c1cc(OC)ccc1S2 (stereo not given),"inconclusive [activator, single point]"
13,CC(=NNC(=O)Cn1ccc(C(F)(F)F)n1)c1ccc(-n2ccnc2)cc1,"inconclusive [activator, partial curve, poor fit]"
14,Cc1ccc(N2CC(C(=O)OCc3ccccc3F)CC2=O)cc1 (stereo not given),"inconclusive [activator, partial curve, poor fit]"
15,CCc1ccc(N=c2c([N+](=O)[O-])nn(-c3ccc4c(c3)OCCO4)n2O)cc1,inactive
16,Cc1cc(/C=C2/C(=N)N3C(=NC2=O)SN=C3S(C)(=O)=O)c(C)n1-c1ccc(F)cc1,active: 20.6 µM
17,CC(C)(C)c1ccc(OCCCNCc2ccccc2)cc1,active: 23.1 µM
18,COC(=O)N/N=C/c1cc(N=Nc2ccccc2)ccc1O,inactive
19,CC(C)CC(=O)NC(c1ccccc1Cl)c1c(O)ccc2ccccc12 (stereo not given),"inconclusive [activator, single point]"
20,COC(=O)CNC(c1ccccc1)c1cc(Br)ccc1NC(C)=O (stereo not given),inactive

# Source: PubChem BioAssay AID624296 (National Center for Advancing Translational Sciences (NCATS), 2012)
